Experimental data as given in article PMC4336329 (PLoS ONE, 2015).
In all, about 310,000 compounds went through this assay and about 2,200 (0.71%) showed an effect of 50% or more. Effects have a minus sign here. This is one part of the list.

target: human ether-à-go-go-related gene (hERG) potassium channel (human, UniProt Q12809); assay: primary screen, population patch clamp on CHO cells stably expressing hERG
Sequence (Q12809 whole entry, looked up): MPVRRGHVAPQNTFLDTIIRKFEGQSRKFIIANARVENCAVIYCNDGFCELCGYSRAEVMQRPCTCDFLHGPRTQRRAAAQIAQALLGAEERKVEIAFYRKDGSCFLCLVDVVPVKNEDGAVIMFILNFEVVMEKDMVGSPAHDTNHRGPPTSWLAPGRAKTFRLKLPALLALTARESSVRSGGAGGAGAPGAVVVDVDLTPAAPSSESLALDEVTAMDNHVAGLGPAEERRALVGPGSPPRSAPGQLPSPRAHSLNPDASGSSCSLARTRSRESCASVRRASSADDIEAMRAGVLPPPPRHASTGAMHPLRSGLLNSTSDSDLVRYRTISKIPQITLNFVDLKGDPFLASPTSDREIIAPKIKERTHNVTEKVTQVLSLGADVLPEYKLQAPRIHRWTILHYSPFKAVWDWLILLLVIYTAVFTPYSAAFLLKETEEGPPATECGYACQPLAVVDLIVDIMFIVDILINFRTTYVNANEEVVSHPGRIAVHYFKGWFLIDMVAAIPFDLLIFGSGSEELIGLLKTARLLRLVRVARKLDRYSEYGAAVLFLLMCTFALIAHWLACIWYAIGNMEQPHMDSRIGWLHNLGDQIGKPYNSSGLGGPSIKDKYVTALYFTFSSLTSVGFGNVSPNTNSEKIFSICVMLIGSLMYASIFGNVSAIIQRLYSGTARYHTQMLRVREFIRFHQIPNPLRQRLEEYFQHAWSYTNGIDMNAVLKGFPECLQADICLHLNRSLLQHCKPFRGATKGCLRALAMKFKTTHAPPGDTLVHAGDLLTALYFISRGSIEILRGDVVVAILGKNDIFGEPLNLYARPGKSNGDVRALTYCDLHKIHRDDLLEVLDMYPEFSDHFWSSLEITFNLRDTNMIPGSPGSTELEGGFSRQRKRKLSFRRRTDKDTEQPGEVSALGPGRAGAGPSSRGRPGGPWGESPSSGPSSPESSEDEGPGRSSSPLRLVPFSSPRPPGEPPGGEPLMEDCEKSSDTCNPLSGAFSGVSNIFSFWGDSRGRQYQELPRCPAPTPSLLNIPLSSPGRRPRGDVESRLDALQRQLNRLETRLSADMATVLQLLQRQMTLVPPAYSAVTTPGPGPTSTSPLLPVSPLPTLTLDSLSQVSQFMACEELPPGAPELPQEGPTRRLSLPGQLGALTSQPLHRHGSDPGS

| Compound | hERG current change (%, negative = inhibition) at 1uM |
| --- | --- |
| COc1ccc(-c2nnc(NC(=O)CSc3ccc(Cl)cc3)s2)cc1OC | 2.61% |
| CSc1nc(N)n2nc(C(C)(C)C)cc2n1 | 9.83% |
| CC(C)(C)c1ccc(-c2noc(-c3ccno3)n2)cc1 | 15.4% |
| Cc1nonc1NC(=O)CSc1nc2ccccc2[nH]1 | 2.55% |
| COc1cccc(CN(C)C(=O)CNC(=O)c2ccc3c(c2)OCO3)c1OC | 20.1% |
| CCCC(C(=O)NC(C)(C)C)N(C(=O)c1snc(C(N)=O)c1N)c1ccc2c(c1)OCCO2 (stereo not drawn) | 7.46% |
| O=C(c1ccc(F)cc1)N1CCC(n2nnc3ccccc32)CC1 | 0.577% |
| Cc1nc(-c2ccc(F)cc2)c(CC(=O)N2CCN(S(=O)(=O)c3cccc(Cl)c3)CC2)s1 | 7.19% |
| Cc1ccc(N(CC(=O)Nc2cccc(C)c2)S(=O)(=O)c2cccc3nonc23)cc1 | 11.2% |
| COc1ccc(CCNC(=O)Cn2c(=O)n(CC3CCCO3)c(=O)c3ccccc32)cc1OC (stereo not drawn) | 3.58% |
| S=C(Nc1ccccc1Cl)N1CCCCCC1 | 6.54% |
| Cc1cc(Cn2nc(-c3ccccc3)cc2C(=O)NCc2cccc(Br)c2)on1 | 6.53% |
| CCC1CCCCN1C(=O)CSc1nnc(CNC(=O)c2cc(OC)c(OC)c(OC)c2)o1 (stereo not drawn) | 10.6% |
| Cc1ccc(NC(=O)Cn2ncc(Cl)c(Cl)c2=O)cc1S(=O)(=O)N1CCCCC1 | 2.28% |
| CC(=O)c1ccc(S(=O)(=O)NC2CC(=O)N(c3ccc(C)cc3)C2)cc1 (stereo not drawn) | 8.75% |
| Cc1cc(NC(=O)c2ccc(Cl)cc2Cl)no1 | 9.22% |
| COc1ccc(C2(CNS(=O)(=O)c3ccc(C)cc3)CCOCC2)cc1 | 12.4% |
| O=c1c2cn[nH]c2nc(SCc2cc(=O)n3cc(Br)ccc3n2)n1-c1ccc(Br)cc1 | 7.81% |
| O=C(CCCn1c(=O)[nH]c2ccsc2c1=O)NC1CCCCC1 | 16.8% |

| Compound | hERG current change (%, negative = inhibition) at 1uM |
| --- | --- |
| CC(C)OCCCNC(=O)C(C)Oc1ccccc1 (stereo not drawn) | -1.34% |
| Cc1ccn2cc(CNC(=O)c3ccc(Br)o3)nc2c1 | -15.3% |
| Cc1ccc(S(=O)(=O)/N=C(/Nc2c(C)n(C)n(-c3ccccc3)c2=O)c2ccccc2)cc1 | -0.737% |
| CC(C)Nc1nc2nonc2nc1Nc1ccccc1 | 10.9% |
| COc1cccc(/C=N/NC(=O)Cn2cnc3c2c(=O)n(C)c(=O)n3C)c1 | 9% |
| CCN(Cc1ccncc1)C(=O)Cc1cccs1 | 4.08% |
| Cc1cc(C)cc(NC(=O)C(c2ccccc2)N2CCCC2)c1 (stereo not drawn) | 12.6% |
| COc1cc(-c2[nH]ncc2CN2CCc3sccc3C2)cc(OC)c1OC | 6.26% |
| O=C(CN1CCN(c2ccc(F)cc2)CC1)c1ccc2c(c1)OCO2 | -0.884% |
| CSc1c(-c2ccccc2)nc2ccc(Cl)cc2c1C(=O)O | 3.52% |
| CCS(=O)(=O)c1ccc2c(c1)NC(=O)C(CCO)O2 (stereo not drawn) | 7.07% |
| O=C(CNC(=O)c1ccccc1F)NC1=NCCS1 | 31.6% |
| CC(=O)c1ccc(NC(=O)CSc2nnc(-c3ccco3)o2)cc1 | -5.71% |
| Cc1c(Cl)cccc1NC(=S)N(CCCN1CCOCC1)Cc1ccco1 | -17.3% |
| COc1ccc(/C(C)=N/NC(=O)CNC(=O)c2cccs2)cc1OC | 2.16% |
| C=CCn1c(SCC(=O)Nc2ccc(O)cc2)nc2sc(CC)cc2c1=O | -17.3% |
| CC(C)N(C(=S)Nc1cccnc1)c1ccccc1 | 12.4% |
| CCCCNC(=O)C1CCCN1S(=O)(=O)c1cccc2nsnc12 (stereo not drawn) | 4.06% |
| CCCCCCSc1nc2c(c(=O)[nH]c(=O)n2C)n1C | 18.1% |

| Compound | hERG current change (%, negative = inhibition) at 1uM |
| --- | --- |
| COc1ccc(CO[C@@H]2O[C@H](CO)[C@@H](O)[C@H](O)[C@H]2NC(C)=O)cc1OC | 14.1% |
| CCNC(=O)CCSc1nnc(-c2ccco2)o1 | 7.56% |
| COc1cc2ccccc2cc1C(=O)Nc1ccc2oc(=O)ccc2c1 | 10.5% |
| CCOC(=O)C1=C(C)OC(N)=C(C#N)C1c1cc(Cl)c(OCC(N)=O)c(OC)c1 (stereo not drawn) | 1.08% |
| CCC(OC(=O)CC1Sc2ccccc2NC1=O)C(=O)NCC1CCCO1 (stereo not drawn) | 14.3% |
| Cc1ccc(S(=O)(=O)Nc2nc3cc(C)c(C)cc3[nH]2)cc1 | 11.2% |
| CC12CCC(C(=O)N(CC(O)CN3CCCCCC3)C1=O)C2(C)C.Cl (stereo not drawn) | 9.02% |
| CC(=O)Oc1ccc(/C=C2/C(=O)N(c3ccccc3)N=C2C)cc1 | 5.44% |
| CCC1(CC)NC(=O)N(CC(=O)OCC(=O)Nc2cc(C)ccc2C)C1=O | 17.3% |
| CCN(Cc1ccccc1)c1ccc(/C=N/NC(=O)c2cccc(S(=O)(=O)N3CCOCC3)c2)cc1 | 12.9% |
| CCc1nnc(NC(=O)CC23CC4CC(CC(Br)(C4)C2)C3)s1 | 14.2% |
| OCCN(Cc1ccccc1)CC1CCCCC1 | 4.24% |
| CCOc1ccc(NC(=O)Cn2nc(C(N)=O)c3ccccc3c2=O)cc1S(=O)(=O)N1CCCC1 | 4.75% |
| CCOc1ncc(S(=O)(=O)N2CCN(CC)CC2)cc1C(=O)O | 15.2% |
| COCCCNC(=O)c1cn(Cc2c(F)cccc2Cl)nn1 | -0.167% |
| O=[N+]([O-])c1ccccc1/C=N/Nc1nnc(-c2ccccc2)c(-c2ccccc2)n1 | 12.8% |
| O=C(COC(=O)/C=C/c1ccc(C(F)(F)F)cc1)NC1CCS(=O)(=O)C1 (stereo not drawn) | 20% |
| CC1CCCCC1NC(=O)Cn1c(=O)oc2cc(S(=O)(=O)N3CCCC3)ccc21 (stereo not drawn) | 16.9% |
| Cn1cnnc1SCC(=O)Nc1ncc(C(F)(F)F)cc1Cl | 10.8% |
